{"source": "PubChem BioAssay AID1745845", "about": "(National Center for Advancing Translational Sciences (NCATS), 2022)", "note": "“And” between values parts separate entries of the source, which are not always exact repeats. Equal values may be shown once. Screen size: about 360,000 compounds; about 2,600 (0.72%) were called active. Inconclusive means that the source gave no clear call. Such entries were picked first, then a sample of the others. Calls come from the whole dose curve; as a rule, active = well fitted inhibition curve with a large enough effect; inconclusive = small, poorly fitted or top-dose-only effect; inactive = no such curve, though single readings can be large or run the other way. Where the call is inconclusive, the potency comes from a doubtful curve fit. Some structures have more than one record in an assay (separate samples or runs), and their calls can disagree. % is set by controls: 0 for no effect and ±100 for the full control effect; potency is the fitted concentration of half-maximal effect; tags give direction and shape of the fitted curve."}
{"assay": "Primary qHTS for Inhibitors of ATXN expression; note: nearly all actives have a fitted effect of over 55% in size", "settings": "HEK-293 ATXN2-luciferase reporter, luminescence, 24 h; activity change, negative = inhibition: at 57 µM (top of the series)", "outline": "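ATXN2-luciferase reporter cells (luciferase flanked by upstream and downstream ATXN2 gene portions) were treated 24 h at 37 °C with compounds at up to 57 uM. SteadyGlo luminescence gave expression; GF-AFC fluorescence gave viability.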"}
{"smiles": "CC(C)C[C@H](NC(=O)OC(C)(C)C)C(=O)N/N=C/C1=Cc2ccccc2OC1C", "note": "(some centres undefined)", "Potency": "inconclusive: 39.8 µM [inhibitor, single point]"}
{"smiles": "CN(C)CCCNc1ncnc2c1c(-c1ccccc1)cn2-c1ccccc1", "Potency": "inconclusive: 35.5 µM [inhibitor, single point]"}
{"smiles": "O=C(C1=C[C@H](c2ccc(C(F)(F)F)cc2)C[C@H](OCc2ccc(CO)cc2)O1)N1CCN(Cc2ccccc2)CC1", "Potency": "inconclusive: 39.8 µM [inhibitor, single point]"}
{"smiles": "CC1(C(=O)NC2CCN(Cc3ccccc3)CC2)CCN1Cc1ccc2ccccc2c1", "note": "(centres undefined)", "Potency": "inconclusive: 31.6 µM [inhibitor, single point]"}
{"smiles": "O=C(N/N=C/c1cc(Br)ccc1O)c1ccncc1", "Potency": "active: 2.82 µM"}
{"smiles": "CN(C)CCN(C(=O)c1ccc2c(c1)OCCO2)c1nc2c(Cl)cccc2s1", "Potency": "inactive"}
{"smiles": "O=C1C(=O)c2c(ccc3ccccc23)-c2ccccc21", "Potency": "active: 3.16 µM"}
{"smiles": "COc1ccc(CNCC(O)(c2ccc(Cl)cc2)c2ccc(Cl)cc2)cc1", "Potency": "inconclusive: 35.5 µM [inhibitor, single point]"}
{"smiles": "C/C(=N\\NC(=S)NC(C)C)c1ccc(Cl)s1", "Potency": "inactive"}
{"smiles": "Cc1c(Cl)cccc1NC(=O)Nc1ccc2snnc2c1", "Potency": "inconclusive: 28.2 µM [inhibitor, single point]"}
{"smiles": "CCn1c(=S)sc2c(=O)n(-c3ccccc3)c(SC)nc21", "Potency": "inconclusive: 39.8 µM [inhibitor, single point]"}
{"smiles": "CC1CC(C)(C)n2c(O)c(N=NC(N)=S)c3cccc1c32", "note": "(centres undefined)", "Potency": "active: 28.2 µM"}
{"smiles": "COC(=O)c1ccc(NC(=O)CN(Cc2ccccc2)S(=O)(=O)c2ccc(Cl)cc2)cc1", "Potency": "inconclusive: 39.8 µM [inhibitor, single point]"}
{"smiles": "COc1ccc(S(=O)(=O)Nc2ccc3c(c2)CC(=O)N([C@@H](C)CO)C[C@H](C)[C@@H](CN(C)S(=O)(=O)c2ccc(F)cc2)O3)cc1", "Potency": "inactive"}
{"smiles": "CCCCCCCCCCCCCC[N+](C)(C)Cc1ccccc1", "Potency": "active: 35.5 µM"}
{"smiles": "Cc1ccc2onc(CNC(=O)N3CCN(c4cccc(C(F)(F)F)c4)CC3)c2c1", "Potency": "inactive"}
{"smiles": "O=C(NCCC1=CCCCC1)c1ccc(=O)oc1", "Potency": "inactive"}
{"smiles": "CC(C)COCc1ccc(O)c2ncccc12", "Potency": "inconclusive: 31.6 µM [inhibitor, single point]"}
{"smiles": "OCCCNc1ncnc2c1ncn2[C@H]1CN(Cc2ccncc2)C[C@@H](CO)O1", "Potency": "inactive"}
{"smiles": "COc1ccc(NC(=S)NNC(=O)c2nnn(-c3ccccc3)c2C)cc1", "Potency": "inactive"}
{"smiles": "COC(=O)c1scc(S(=O)(=O)C(C)(C)C)c1-n1cccc1", "Potency": "inconclusive: 10.6 µM [inhibitor, partial curve, poor fit]"}
{"smiles": "Nc1cc(Cl)ccc1C(=O)OCC(=O)NCC1CCCO1", "note": "(centres undefined)", "Potency": "inactive"}
{"smiles": "Cc1cccc(COc2ccccc2C(=O)N(C)CC(=O)Nc2cccc(F)c2)c1", "Potency": "inactive"}
{"smiles": "O=C(COc1ccc(Cl)cc1Cl)Nc1ccccn1", "Potency": "active: 2.82 µM"}
{"smiles": "Oc1ccc2ccccc2c1/C=C/c1ccc2c(Br)cc(Br)c(O)c2n1", "Potency": "inconclusive: 33.6 µM [inhibitor, partial curve, poor fit]"}
{"smiles": "CN=c1sc(C(=O)Nc2cccc(Cl)c2)cc(=O)n1C", "Potency": "inconclusive: 39.8 µM [inhibitor, single point]"}
{"smiles": "Cc1ccccc1NC(=O)C(=Cc1ccc(C(=O)O)cc1)C(=O)Nc1ccccc1C", "Potency": "active: 10.6 µM"}
{"smiles": "COc1ccc(N2Cc3ccc(OC)c(OC)c3C2=O)cc1", "Potency": "inactive"}
{"smiles": "O=C(NCCCCCCCN1CCCCCCC1)C(C1CCCCC1)C1CCCCC1", "Potency": "inconclusive: 37.7 µM [inhibitor, partial curve, poor fit]"}
{"smiles": "OCCNCc1cc(Br)ccc1OCc1ccc(Cl)cc1Cl", "Potency": "inconclusive: 29.9 µM [inhibitor, single point]"}
{"smiles": "CC1CCc2c(sc3nc(CN4CCOCC4)nc(N4CCc5ccccc5C4)c23)C1", "note": "(centres undefined)", "activity change, negative = inhibition": "inconclusive: -42% [inhibitor]"}
{"smiles": "CCN(C(=O)CCc1nc(-c2ccc(OC)cc2)no1)c1cc(OC)ccc1OC", "Potency": "inconclusive: 31.6 µM [inhibitor, partial curve, poor fit]"}
{"smiles": "O=C(O)c1ccc2c(c1Nc1ccccc1)C(=O)c1ccccc1C2=O", "activity change, negative = inhibition": "inconclusive: -44.8% [inhibitor]"}
{"smiles": "Cc1ccc(CNC(=O)CSc2nnc3c(n2)[nH]c2ccccc23)cc1", "Potency": "inconclusive: 31.6 µM [inhibitor, single point]"}
{"smiles": "COc1cc(NCC2COc3c(ccc(OC)c3OC)C2=O)c([N+](=O)[O-])cc1OC", "note": "(centres undefined)", "Potency": "inactive"}
{"smiles": "CC(C)c1cc(C(=O)N2Cc3ccc(CN4CCN(C)CC4)cc3C2)c(O)cc1O", "Potency": "active: 0.217 µM"}
{"smiles": "CN(C)c1cccc(CNC(=O)c2ccc3sc([C@@H]4O[C@H](CO)[C@H](O)[C@H](O)[C@H]4O)nc3c2)c1", "Potency": "inactive"}
{"smiles": "CCOC(=O)C1CCCN(C(=O)Cn2sc3nc(C)cc(C)c3c2=O)C1", "note": "(centres undefined)", "Potency": "inconclusive: 39.8 µM [inhibitor, single point]"}
{"smiles": "Cc1cc(NC(=O)c2ccc(Cn3nc(C)c(Br)c3C)o2)no1", "Potency": "inconclusive: 20 µM [inhibitor, single point]"}
{"smiles": "Cc1ccc(S(=O)(=O)N(C)C[C@@H]2OCc3ccccc3-c3c(n(C)c4ccccc34)C(=O)N([C@H](C)CO)C[C@@H]2C)cc1", "Potency": "inconclusive: 35.5 µM [inhibitor, single point]"}
{"smiles": "CNc1nc(NCCOc2ccccc2)c2sccc2n1", "Potency": "inactive"}
{"smiles": "Cc1ccc(-n2ncc3c(NC4CCCCC4)ncnc32)cc1Cl", "Potency": "inactive"}
{"smiles": "Cc1ccc(N2CCN(C(=O)c3cnn(-c4ccc(C)c(C)c4)c3C3CCNCC3)CC2)c(C)c1", "Potency": "inconclusive: 31.6 µM [inhibitor, single point]"}
{"smiles": "O=C(N/N=C/c1ccccn1)c1[nH]c2ccc([N+](=O)[O-])cc2c1-c1ccccc1", "Potency": "inconclusive: 26.7 µM [inhibitor, partial curve, poor fit]"}
{"smiles": "COc1cc(OC)c(C(=O)/C=C/c2ccc(OCc3ccccc3)c(OC)c2)c(OC)c1", "Potency": "inconclusive: 37.7 µM [inhibitor, single point]"}
{"smiles": "COc1ccc(NC(=O)CN(C)C(=O)c2cn(-c3ccccc3)nc2-c2cccs2)cc1", "Potency": "inactive"}
{"smiles": "Cc1cnc(NC(=O)c2ccccn2)s1", "Potency": "inconclusive: 11.2 µM [inhibitor, partial curve, poor fit]"}
{"smiles": "N#CC(c1cccc(Cl)c1)c1ccc2c(C(F)(F)F)cc(C(F)(F)F)nc2n1", "note": "(centres undefined)", "Potency": "active: 2.51 µM"}
{"smiles": "C#CCOCCOCCOCCNc1nc(N2CCN(C(=O)CCCCCCCCCCNC(=O)[C@H](CCCCN)n3cc(C)nn3)CC2)nc(N2CCN(C(=O)CCCCCCCCCCNC(=O)[C@@H]([C@H](C)O)n3cc(C)nn3)CC2)n1", "Potency": "inconclusive: 28.2 µM [inhibitor, single point]"}
{"smiles": "COc1cccc(-c2cc(NC=O)c3ncc(-c4ccc(C(C)=O)cc4)n3c2)c1", "Potency": "inconclusive: 11.2 µM [inhibitor, partial curve, poor fit]"}
{"smiles": "CCCCn1c(=N)n(CCOc2ccc(C)cc2)c2ccccc21", "Potency": "inconclusive: 17.8 µM [inhibitor, partial curve, poor fit]"}
{"smiles": "c1ccc(N2CCN(c3nc(-c4ccccn4)nc4ccccc34)CC2)cc1", "Potency": "inconclusive: 22.4 µM [inhibitor, single point]"}
{"smiles": "O=c1cc(N2CCCCC2)c(-c2ccccc2)nn1Cc1c(Cl)cccc1Cl", "Potency": "inconclusive: 39.8 µM [inhibitor, single point]"}
{"smiles": "Cn1c(=Nc2ccccc2)sc2ccccc21", "Potency": "inactive"}
{"smiles": "CCC(CC)C(=O)N(C)c1c(C)nc2c(OCCOc3ccc(F)cc3)cccn12", "Potency": "inactive"}
{"smiles": "COc1ccc(OC)c(Nc2cc(C)nc3ccc(C)cc23)c1", "Potency": "inconclusive: 15.8 µM [inhibitor, partial curve, poor fit]"}
{"smiles": "COc1ccc2c(c1)N(C)/C(=C/c1cccc[n+]1C)S2", "Potency": "inconclusive: 14.1 µM [inhibitor, partial curve]"}
{"smiles": "O=C1Nc2ccc(Br)cc2C12NNc1ccccc1O2", "note": "(centres undefined)", "Potency": "inconclusive: 39.8 µM [inhibitor, single point]"}
{"smiles": "O=C(Cn1cnc([N+](=O)[O-])c1)NCCc1ccccc1", "Potency": "inactive"}
{"smiles": "Cc1ccc(NC(=S)Nc2ccc(OC(F)F)c(Cl)c2)cc1Cl", "Potency": "inconclusive: 28.2 µM [inhibitor, single point]"}
{"smiles": "CC(C)CC(c1nnnn1Cc1cccs1)N1CCN(c2nc3ccccc3s2)CC1", "note": "(centres undefined)", "Potency": "inactive"}
{"smiles": "CCOC(=O)C1=C[C@]2(CC)CCCN3CCc4c(n1c1ccccc41)[C@@H]32", "Potency": "active: 30.6 µM and inconclusive: 39.8 µM [inhibitor, single point]"}
{"smiles": "Cc1ccc(-c2ccc(CN3C(CC(C)C)C(=O)N(Cc4cn(CCC5OCCCO5)nn4)CCS3(=O)=O)cc2)cc1", "note": "(centres undefined)", "Potency": "active: 28.2 µM"}
{"smiles": "CCOc1ccc(NC(=O)Cn2c(=O)n(CCCCC(=O)NCc3ccc4c(c3)OCO4)c(=O)c3ccccc32)cc1", "Potency": "inconclusive: 35.5 µM [inhibitor, single point]"}
{"smiles": "Cc1c(NC(=O)c2cccs2)c(=O)n(-c2ccccc2)n1C", "Potency": "inactive"}
{"smiles": "Nc1nc(F)nc2c1ncn2[C@@H]1O[C@H](CO)[C@@H](O)[C@H]1O", "Potency": "active: 2.51 µM"}
{"smiles": "Cc1c(CN2CCC(CO)(CCOc3ccccc3)CC2)[nH]c2ccc(Cl)cc12", "Potency": "inconclusive: 39.8 µM [inhibitor, single point]"}
{"smiles": "CCN1CCN(c2cc(C)c3cc(NC(=S)NCCCN4CCc5ccccc5C4)ccc3n2)CC1", "Potency": "inconclusive: 28.2 µM [inhibitor, partial curve, poor fit]"}
{"smiles": "OC(CN1CCNCC1)Cn1c2ccccc2c2ccccc21", "note": "(centres undefined)", "Potency": "inconclusive: 14.1 µM [inhibitor, partial curve]"}
